Data: paper PMC6361898
No constants are given. Whether binding was seen depends on the method and setting. For part of these data: Binding seen in cells or lysates may run through a third protein. Some binding calls cover weakened binding; strength is not graded here. For part of these data: Tags and fused reporters may be left off the sequences shown.

T1: TERB1-VC (full-length human TERB1 fused to the Venus C-terminus) (human) (UniProt Q8NA31)
T1 sequence: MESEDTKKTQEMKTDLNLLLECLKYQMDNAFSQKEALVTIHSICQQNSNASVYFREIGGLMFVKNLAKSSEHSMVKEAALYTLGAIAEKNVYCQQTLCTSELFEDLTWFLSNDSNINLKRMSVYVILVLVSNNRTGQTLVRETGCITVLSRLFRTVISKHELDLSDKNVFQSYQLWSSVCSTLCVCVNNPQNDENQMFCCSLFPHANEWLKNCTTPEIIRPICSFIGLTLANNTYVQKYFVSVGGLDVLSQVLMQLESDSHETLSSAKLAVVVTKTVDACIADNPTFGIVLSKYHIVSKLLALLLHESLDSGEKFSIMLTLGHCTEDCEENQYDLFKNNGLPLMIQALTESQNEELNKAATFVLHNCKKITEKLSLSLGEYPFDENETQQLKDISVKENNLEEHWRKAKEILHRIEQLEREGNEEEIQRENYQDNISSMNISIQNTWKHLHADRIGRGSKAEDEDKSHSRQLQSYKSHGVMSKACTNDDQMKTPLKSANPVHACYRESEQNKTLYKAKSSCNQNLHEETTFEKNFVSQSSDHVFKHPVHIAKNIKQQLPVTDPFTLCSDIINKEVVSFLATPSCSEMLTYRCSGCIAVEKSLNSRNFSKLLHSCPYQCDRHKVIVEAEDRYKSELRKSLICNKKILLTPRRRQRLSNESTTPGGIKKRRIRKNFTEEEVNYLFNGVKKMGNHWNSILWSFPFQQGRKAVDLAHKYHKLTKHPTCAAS

T2: Flag-tagged human TERB2 Y56E (human) (UniProt Q8NHR7)
T2 sequence: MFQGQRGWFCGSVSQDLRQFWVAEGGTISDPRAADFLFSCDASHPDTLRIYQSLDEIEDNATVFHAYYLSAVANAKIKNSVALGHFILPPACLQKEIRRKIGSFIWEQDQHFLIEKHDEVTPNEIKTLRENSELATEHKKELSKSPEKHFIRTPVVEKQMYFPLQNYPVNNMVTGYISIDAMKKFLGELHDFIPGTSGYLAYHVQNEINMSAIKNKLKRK

T3: Flag-tagged human TERB2 F192R (human) (UniProt Q8NHR7)
T3 sequence: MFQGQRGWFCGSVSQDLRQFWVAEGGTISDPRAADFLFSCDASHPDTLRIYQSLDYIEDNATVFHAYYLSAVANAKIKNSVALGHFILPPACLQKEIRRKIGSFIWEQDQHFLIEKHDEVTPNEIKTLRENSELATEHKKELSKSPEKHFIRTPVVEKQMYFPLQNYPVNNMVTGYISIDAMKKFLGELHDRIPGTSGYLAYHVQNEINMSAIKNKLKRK

T4: Flag-tagged human TERB2, wild type (human) (UniProt Q8NHR7)
T4 sequence: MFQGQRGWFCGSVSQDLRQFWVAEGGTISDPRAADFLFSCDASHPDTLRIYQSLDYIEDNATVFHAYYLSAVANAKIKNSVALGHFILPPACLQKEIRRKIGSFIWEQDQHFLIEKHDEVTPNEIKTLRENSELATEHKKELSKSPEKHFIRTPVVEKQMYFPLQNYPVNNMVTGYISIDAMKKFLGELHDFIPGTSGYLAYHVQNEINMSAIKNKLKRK

T5: Flag-tagged mouse TERB2 F188R (mouse) (UniProt Q9D494)
T5 sequence: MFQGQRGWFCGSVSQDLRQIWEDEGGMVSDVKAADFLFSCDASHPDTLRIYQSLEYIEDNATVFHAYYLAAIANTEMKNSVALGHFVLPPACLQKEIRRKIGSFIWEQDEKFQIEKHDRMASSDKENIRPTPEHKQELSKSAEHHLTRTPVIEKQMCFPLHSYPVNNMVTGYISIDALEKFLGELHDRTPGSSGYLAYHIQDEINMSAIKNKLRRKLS

T6: Flag-tagged mouse TERB2 Y56E (mouse) (UniProt Q9D494)
T6 sequence: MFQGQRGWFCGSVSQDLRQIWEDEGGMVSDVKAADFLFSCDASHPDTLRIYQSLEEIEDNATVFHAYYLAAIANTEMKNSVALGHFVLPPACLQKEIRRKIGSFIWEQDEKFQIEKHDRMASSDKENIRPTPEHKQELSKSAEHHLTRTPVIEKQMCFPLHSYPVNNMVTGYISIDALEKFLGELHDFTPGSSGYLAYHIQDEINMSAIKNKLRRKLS

T7: Flag-tagged mouse TERB2, wild type (mouse) (UniProt Q9D494)
T7 sequence: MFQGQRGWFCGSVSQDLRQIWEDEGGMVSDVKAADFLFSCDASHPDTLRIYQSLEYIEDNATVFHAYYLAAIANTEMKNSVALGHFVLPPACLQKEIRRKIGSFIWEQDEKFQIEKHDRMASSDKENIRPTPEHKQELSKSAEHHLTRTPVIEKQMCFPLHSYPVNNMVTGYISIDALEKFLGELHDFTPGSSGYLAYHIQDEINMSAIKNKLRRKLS

T8: TERB2-VC (full-length human TERB2 fused to the Venus C-terminus) (human) (UniProt Q8NHR7)
T8 sequence: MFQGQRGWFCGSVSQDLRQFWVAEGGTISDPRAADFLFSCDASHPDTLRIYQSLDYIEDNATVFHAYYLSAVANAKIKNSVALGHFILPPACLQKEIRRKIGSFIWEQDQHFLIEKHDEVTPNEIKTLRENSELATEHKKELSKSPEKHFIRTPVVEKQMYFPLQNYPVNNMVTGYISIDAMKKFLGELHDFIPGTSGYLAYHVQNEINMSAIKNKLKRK

T9: Human TERB2_(2–116) (human) (UniProt Q8NHR7)
T9 sequence: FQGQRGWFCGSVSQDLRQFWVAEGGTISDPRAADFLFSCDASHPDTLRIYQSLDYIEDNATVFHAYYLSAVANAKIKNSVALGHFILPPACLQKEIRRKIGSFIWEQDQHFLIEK


Key:
[1] = target: T1, TERB1-VC (full-length human TERB1 fused to the Venus C-terminus) (human); test: split reporter; Venus BiFC: -VN and -VC fusions co-expressed by lentiviral co-infection of HEK293T cells; Venus signal read by FACS after 36 h
[2] = target: T2, Flag-tagged human TERB2 Y56E (human); test: co-IP; transfected HEK293T cells; lysis in 25 mM Tris-HCl pH 7.4, 150 mM NaCl, 10% glycerol, 0.5% Triton X-100, 1 mM EDTA; anti-FLAG M2 Affinity Gel at 4 °C overnight; immunoblot
[3] = target: T3, Flag-tagged human TERB2 F192R (human); test: as above
[4] = target: T4, Flag-tagged human TERB2, wild type (human); test: as above
[5] = target: T5, Flag-tagged mouse TERB2 F188R (mouse); test: as above
[6] = target: T6, Flag-tagged mouse TERB2 Y56E (mouse); test: as above
[7] = target: T7, Flag-tagged mouse TERB2, wild type (mouse); test: as above
[8] = target: T8, TERB2-VC (full-length human TERB2 fused to the Venus C-terminus) (human); test: split reporter; Venus BiFC: -VN and -VC fusions co-expressed by lentiviral co-infection of HEK293T cells; Venus signal read by FACS after 36 h
[9] = target: T9, Human TERB2_(2–116) (human); test: crystal structure; TERB1_(587–659)–TERB2_(2–116) complex, co-expressed and co-purified; Hg-SAD, refined against a 3.3-Å native dataset; both purified

Row | binding [5] | binding [6] | binding [7] | Binder | also measured
1 |  |  |  | TERB2 residues 1–116 fused to the Venus N-terminus (TERB2-VN truncation) (domain or fragment, UniProt Q8NHR7 1-116) MFQGQRGWFCGSVSQDLRQFWVAEGGTISDPRAADFLFSCDASHPDTLRIYQSLDYIEDNATVFHAYYLSAVANAKIKNSVALGHFILPPACLQKEIRRKIGSFIWEQDQHFLIEK | binding [1]: binds
2 |  |  |  | Human TERB1 (293T cells) (protein, UniProt Q8NA31 1-727) MESEDTKKTQEMKTDLNLLLECLKYQMDNAFSQKEALVTIHSICQQNSNASVYFREIGGLMFVKNLAKSSEHSMVKEAALYTLGAIAEKNVYCQQTLCTSELFEDLTWFLSNDSNINLKRMSVYVILVLVSNNRTGQTLVRETGCITVLSRLFRTVISKHELDLSDKNVFQSYQLWSSVCSTLCVCVNNPQNDENQMFCCSLFPHANEWLKNCTTPEIIRPICSFIGLTLANNTYVQKYFVSVGGLDVLSQVLMQLESDSHETLSSAKLAVVVTKTVDACIADNPTFGIVLSKYHIVSKLLALLLHESLDSGEKFSIMLTLGHCTEDCEENQYDLFKNNGLPLMIQALTESQNEELNKAATFVLHNCKKITEKLSLSLGEYPFDENETQQLKDISVKENNLEEHWRKAKEILHRIEQLEREGNEEEIQRENYQDNISSMNISIQNTWKHLHADRIGRGSKAEDEDKSHSRQLQSYKSHGVMSKACTNDDQMKTPLKSANPVHACYRESEQNKTLYKAKSSCNQNLHEETTFEKNFVSQSSDHVFKHPVHIAKNIKQQLPVTDPFTLCSDIINKEVVSFLATPSCSEMLTYRCSGCIAVEKSLNSRNFSKLLHSCPYQCDRHKVIVEAEDRYKSELRKSLICNKKILLTPRRRQRLSNESTTPGGIKKRRIRKNFTEEEVNYLFNGVKKMGNHWNSILWSFPFQQGRKAVDLAHKYHKLTKHPTCAAS | binding [2]: no binding; binding [3]: binds; binding [4]: binds
3 | no binding | binds | binds | Mouse MAJIN (293T cells) (protein, UniProt Q9D992 1-256) MSLKPFTYPFPETRFLHAGPNVYKFKIRYGNSIRGEEIEDKEVIVQELEDSIRAVLANMDSLQPFVTEHFIVFPYKSKWERVSHLKFKHGESILTPYPFVFTLYIEMKWFAEDLPSGKPADDIPLELVLAETEAEEATMRKWKRKLMEEPSSPSRQGPHRAKMETSSEASSNKKPLKESKRSTDEEAQQEYQDTPASNAIAVKEQDAALGHGLQGLVVPPLQHSSPPPPKEPGARGFLGFLSALFPFRYFFKKSGQ | 
4 |  |  |  | MLTYRCSGCIAVEKSLNSRNFSKLLHSCPYQCDRHKVIVEAEDRYKSELR (domain or fragment, UniProt Q8NA31 587-636) [TERB1 residues 587–636 fused to the Venus N-terminus (TERB1-VN fragment)] | binding [8]: binds
5 |  |  |  | Human TERB1_(587–659) (domain or fragment, UniProt Q8NA31 587-659) MLTYRCSGCIAVEKSLNSRNFSKLLHSCPYQCDRHKVIVEAEDRYKSELRKSLICNKKILLTPRRRQRLSNES | binding [9]: binds
6 | binds | no binding | binds | Mouse TERB1 (293T cells) (protein, UniProt Q8C0V1 1-768) MESEKPKKTQEMKTDLKLLLECLKYHMGNPLSQKEVLITIHSVCKQNSDAGIYFREIGGLMFIINLAKSSEQSLVKEAALYTLGSIAEENVYCQQSLCTSELFQDLTGLLTNDDSNTNLKRMSVYVLLVLVSNNRNGQTLVREVGCIEVLSQMFRTVLSNYELNLSDNSVFQSYLLWSSVCSTLCVCVNNPQNDENQMLCCSLFPCVNEWLMNCMRPEVIRPICSFIGLTLANNTHAQNCFVSSGGLDVLCQVLVQLESDSHNTLSSAKLAVIVTKTMDACITDNSAAFTVVLSKYHIVSTLLALLLHESLDSREKFSIILAIGHCTEDCEKNQYELLKNNGLPLMIQALTEFKNEDLSKAATYVLHNCKKITGKLSLSLGQNSFGENEIELKDISEKETLREHWKAAKEILCRIKQFEKGGKEEKQQNRSGHYKDNTPSMKVNIQTNLKRLCADSTGGTRAEDKDINQSRELRSYKPSEIMSKACANENQLTTRKKNTNPVHPFCKEKGQSKIVHETTPSCAQNLDKEKTFDQKDSVSQSSDQVLKHLPHTVKNRKQVPETDPFTLCLDIIDREVGIQATDSCSRMLKYTCSGCIVARKLLNSRNFSKFLHSCAYQCVHHKVIMEAEDKYKNELRKTFICAKKILLTPCRRRQLCKESTASEELKIVHQKPDSKKLPGLEAQALNTSIPEAMERRSPVPGQSGLHKKRRIRKDFTKEEVNYLFHGVKTMGNHWNSILWSFPFQKGRRAVDLAHKYHRLIKGPSCAAL | 
